Test results published in the supplement of paper PMC6089552.
The campaign covered roughly 3,200 compounds. About 300 (9.4%) showed activity. The entries are a selection whose mix differs from that of the whole data set.

Test system: A673/TR/shEF
Test: cell viability (LOESS-normalised, relative to median of negative controls) (log2 ratio); higher = more viable cells (less compound effect), active = hit call of the paper (over 3 MAD below the median)
Conditions: treatment time: 72 h
Method in brief: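 Doxycycline, present or absent from 24 h before compounds, was used to induce EWS-FLI1 shRNA knockdown in A673/TR/shEF Ewing sarcoma cells at 1,500 per well in 384-well plates. Cells then received library compounds at two or more concentrations, or DMSO controls, for three days. Viability was measured by CellTiter-Glo luminescence on an Envision reader, and per-plate LOESS correction, division by the negative-control median and log2 transformation followed.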

[1] = 0.25 µM, library screen: screen1, EWS-FLI1 expression: high (no doxycycline)
[2] = 0.25 µM, library screen: screen1, EWS-FLI1 expression: low (doxycycline-induced shRNA knockdown)
[3] = 2.5 µM, library screen: screen1, EWS-FLI1 expression: high (no doxycycline)
[4] = 2.5 µM, library screen: screen1, EWS-FLI1 expression: low (doxycycline-induced shRNA knockdown)
[5] = 0.25 µM, library screen: screen2, EWS-FLI1 expression: high (no doxycycline)
[6] = 0.25 µM, library screen: screen2, EWS-FLI1 expression: low (doxycycline-induced shRNA knockdown)
[7] = 2.5 µM, library screen: screen2, EWS-FLI1 expression: high (no doxycycline)
[8] = 2.5 µM, library screen: screen2, EWS-FLI1 expression: low (doxycycline-induced shRNA knockdown)
[9] = 0.103 µM, library screen: screen3, EWS-FLI1 expression: high (no doxycycline)
[10] = 0.103 µM, library screen: screen3, EWS-FLI1 expression: low (doxycycline-induced shRNA knockdown)
[11] = 0.308 µM, library screen: screen3, EWS-FLI1 expression: high (no doxycycline)
[12] = 0.308 µM, library screen: screen3, EWS-FLI1 expression: low (doxycycline-induced shRNA knockdown)
[13] = 0.926 µM, library screen: screen3, EWS-FLI1 expression: high (no doxycycline)
[14] = 0.926 µM, library screen: screen3, EWS-FLI1 expression: low (doxycycline-induced shRNA knockdown)
[15] = 2.8 µM, library screen: screen3, EWS-FLI1 expression: high (no doxycycline)
[16] = 2.8 µM, library screen: screen3, EWS-FLI1 expression: low (doxycycline-induced shRNA knockdown)
[17] = 8.3 µM, library screen: screen3, EWS-FLI1 expression: high (no doxycycline)
[18] = 8.3 µM, library screen: screen3, EWS-FLI1 expression: low (doxycycline-induced shRNA knockdown)
[19] = 25 µM, library screen: screen3, EWS-FLI1 expression: high (no doxycycline)
[20] = 25 µM, library screen: screen3, EWS-FLI1 expression: low (doxycycline-induced shRNA knockdown)

Measured: cell viability (log2)

CC1Cc2ccccc2N1C(=S)Nc1ccc2nccnc2c1 (stereo not given)
inactive: [1] 0.139 | [2] 0.113 | [3] 0.133 | [4] 0.0139

O=C(O)C1CN(CCCP(=O)(O)O)CCN1 (stereo not given)
inactive: [5] 0.0853 | [6] 0.0707 | [7] 0.0988 | [8] 0.109

O=C(CC(=O)c1ccccc1O)c1ccccc1
inactive: [1] -0.0422 | [2] 0.0785 | [3] 0.114 | [4] 0.133

CCCCCCCCCCCCCCCC(=O)OC(CC(=O)[O-])C[N+](C)(C)C (stereo not given)
inactive: [5] 0.153 | [6] 0.133 | [7] 0.18 | [8] 0.0929

O=C(O)c1cc(=O)c2ccccc2[nH]1
inactive: [1] 0.105 | [2] 0.028 | [5] 0.148 | [6] 0.136 | [3] 0.159 | [4] 0.0839 | [7] 0.0707 | [8] 0.0598

CC(=O)N=c1sc(S(N)(=O)=O)nn1C
inactive: [1] 0.0594 | [2] 0.0456 | [3] 0.15 | [4] 0.092

CC(C)NNC(=O)c1ccncc1
inactive: [1] 0.0221 | [2] 0.0941 | [5] 0.0555 | [6] 0.0797 | [3] 0.132 | [4] 0.16 | [7] 0.0722 | [8] 0.148

CSCCC(NC=O)C(=O)NC(C)C(=O)O (stereo not given)
inactive: [1] 0.11 | [2] 0.0779 | [3] 0.177 | [4] 0.154

NC(N)=NCCCCN=C(N)N
inactive: [1] 0.0437 | [2] 0.0325 | [5] 0.0915 | [6] 0.112 | [3] 0.0862 | [4] 0.037 | [7] 0.0239 | [8] 0.0587

O=C(O)c1ccccc1Nc1cccc(C(F)(F)F)c1
inactive: [1] 0.154 | [2] 0.0501 | [3] 0.141 | [4] 0.0483

Clc1ccc(C(c2ccccc2Cl)C(Cl)Cl)cc1 (stereo not given)
inactive: 0.025 µM, library screen: screen2, EWS-FLI1 expression: high (no doxycycline) 0.119 | 0.025 µM, library screen: screen2, EWS-FLI1 expression: low (doxycycline-induced shRNA knockdown) 0.0601 | [1] 0.118 | [2] 0.0601 | [5] 0.16 | [6] 0.107 | [3] 0.121 | [4] 0.0186 | [7] 0.0914 | [8] 0.0523 | 25 µM, library screen: screen2, EWS-FLI1 expression: high (no doxycycline) 0.121 | 25 µM, library screen: screen2, EWS-FLI1 expression: low (doxycycline-induced shRNA knockdown) 0.0697

Cc1cccc(C)c1OCC(=O)N[C@@H](Cc1ccccc1)[C@@H](O)C[C@H](Cc1ccccc1)NC(=O)[C@H](C(C)C)N1CCCNC1=O
inactive: [9] 0.00796 | [10] 0.05 | [11] -0.0398 | [12] 0.0179 | [13] -0.0281 | [14] -0.00525 | [15] -0.0155 | [16] 0.0516 | [17] 0.0372 | [18] 0.0544 | [19] -0.00807 | [20] 0.0172

CN1[C@@H]2CC[C@@H]1CC(OC(c1ccccc1)c1ccccc1)C2 (stereo not given in full)
inactive: [1] 0.132 | [2] 0.107 | [5] 0.135 | [6] 0.0858 | [3] 0.0835 | [4] 0.0797 | [7] 0.114 | [8] 0.0926

C[C@@H]1CC[C@@]2(OC1)O[C@H]1C[C@H]3[C@@H]4CC=C5C[C@@H](O)CC[C@]5(C)[C@H]4CC[C@]3(C)[C@H]1[C@@H]2C
inactive: [1] 0.0583 | [2] 0.0531 | [3] 0.133 | [4] 0.13

CCOc1nc2cccc(C(=O)O)c2n1Cc1ccc(-c2ccccc2-c2nn[nH]n2)cc1
inactive: [1] 0.102 | [2] 0.0532 | [3] 0.153 | [4] 0.125

NCCCS(=O)(=O)O
inactive: [1] 0.0521 | [2] -0.0178 | [5] 0.113 | [6] 0.18 | [3] 0.192 | [4] 0.173 | [7] 0.00997 | [8] 0.115

CC(C)[C@H](O)C(=O)N[C@@H](C)C(=O)N[C@@H]1C(=O)N(C)CCc2ccccc21
inactive: [9] -0.0287 | [10] 0.04 | [11] 0.0566 | [12] 0.0157 | [13] -0.0525 | [14] 0.0492 | [15] -0.112 | [16] 0.0257 | [17] -0.0518 | [18] 0.0808 | [19] -0.014 | [20] 0.0386

CC(C)CCC[C@@H](C)[C@H]1CC[C@H]2[C@@H]3CC[C@@H]4C[C@H](O)CC[C@]4(C)[C@H]3CC[C@]12C
inactive: [1] 0.108 | [2] 0.0181 | [3] 0.105 | [4] 0.0609

C=CCN1CCc2cc(O)c(O)cc2C(c2ccccc2)C1 (stereo not given)
inactive: [5] 0.186 | [6] 0.0732 | [7] 0.221 | [8] 0.0252
